In PMC2634294 (Bioorganic & medicinal chemistry letters, 2008):

tested on: M. tuberculosis H37Rv (ATCC 27294); assay: Microplate Alamar Blue Assay; conditions: M. tuberculosis H37Rv

Row | SMILES | inhibitory / antitubercular activity against M. tuberculosis (in words)
1 | C=C(CC[C@@H](C)[C@H]1CC[C@H]2[C@@H]3CC=C4C[C@@H](O)CC[C@]4(C)[C@H]3CC[C@]12C)C(C)C [Compound 1, 24-methylene-cholesterol] | only marginal activity

same assay, conditions: at ≤64 μg/mL

Row | SMILES | activity against Mtb (in words)
2 | C=C(CC[C@@H](C)[C@H]1CC[C@H]2[C@@H]3CC=C4C[C@@H](O)CC[C@]4(C)[C@H]3CC[C@]12C)C(C)C [Compound 1, 24-methylene-cholesterol] | none of the starting Δ^5-unsaturated steroids (1, 4, 6, 8, and 10) displays meaningful activity
3 | CC[C@H](CC[C@@H](C)[C@H]1CC[C@H]2[C@@H]3CC=C4C[C@@H](O)CC[C@]4(C)[C@H]3CC[C@]12C)C(C)C [Compound 4, 24-α-ethyl-cholesterol] | none of the starting Δ^5-unsaturated steroids (1, 4, 6, 8, and 10) displays meaningful activity
4 | CC(C)CCC[C@@H](C)[C@H]1CC[C@H]2[C@@H]3CC=C4C[C@@H](O)CC[C@]4(C)[C@H]3CC[C@]12C [Compound 6, cholesterol] | none of the starting Δ^5-unsaturated steroids (1, 4, 6, 8, and 10) displays meaningful activity
5 | CC(C)[C@@H](C)[C@]1(C)C[C@@H]1[C@@H](C)[C@H]1CC[C@H]2[C@@H]3CC=C4C[C@@H](O)CC[C@]4(C)[C@H]3CC[C@]12C [Compound 8, Gorgosterol] | none of the starting Δ^5-unsaturated steroids (1, 4, 6, 8, and 10) displays meaningful activity
6 | CC(C)[C@@H](C)CC[C@@H](C)[C@H]1CC[C@H]2[C@@H]3CC=C4C[C@@H](O)CC[C@]4(C)[C@H]3CC[C@]12C [Compound 10, 24-α-methyl-cholesterol] | none of the starting Δ^5-unsaturated steroids (1, 4, 6, 8, and 10) displays meaningful activity
